Experimental data reported in publication PMC6611695, “Cryo-EM structures of remodeler-nucleosome intermediates suggest allosteric control through the nucleosome” (eLife, 2019).

Biological target: T1, Histone H4 (Xenopus laevis), in the nucleosome (Xenopus laevis, UniProt P62799)
T1 construct: Histone H4, Xenopus laevis, recombinant (Luger et al., 1997); Stood in the assay as a subunit of the nucleosome m2
Assay: cryo-EM structure; 0.625 µM 0/60 nucleosomes mixed with 1.25 µM SNF2h in 0.5 mM ADP-Mg, 0.5 mM BeFx, 0.5 mM MgCl2, 140 mM KCl, 3 mM Tris pH 7.5, 1.25 mM HEPES pH 7.5, 1.5% glycerol; room temperature 10 min; no cross-linking; K2 Summit camera
Conditions: both partners purified

binding result: binds
B1: SNF2h (human ISWI remodeler), full-length (enzyme)
chain: MSSAAEPPPPPPPESAPSKPAASIASGGSNSSNKGGPEGVAAQAVASAASAGPADAEMEEIFDDASPGKQKEIQEPDPTYEEKMQTDRANRFEYLLKQTELFAHFIQPAAQKTPTSPLKMKPGRPRIKKDEKQNLLSVGDYRHRRTEQEEDEELLTESSKATNVCTRFEDSPSYVKWGKLRDYQVRGLNWLISLYENGINGILADEMGLGKTLQTISLLGYMKHYRNIPGPHMVLVPKSTLHNWMSEFKRWVPTLRSVCLIGDKEQRAAFVRDVLLPGEWDVCVTSYEMLIKEKSVFKKFNWRYLVIDEAHRIKNEKSKLSEIVREFKTTNRLLLTGTPLQNNLHELWSLLNFLLPDVFNSADDFDSWFDTNNCLGDQKLVERLHMVLRPFLLRRIKADVEKSLPPKKEVKIYVGLSKMQREWYTRILMKDIDILNSAGKMDKMRLLNILMQLRKCCNHPYLFDGAEPGPPYTTDMHLVTNSGKMVVLDKLLPKLKEQGSRVLIFSQMTRVLDILEDYCMWRNYEYCRLDGQTPHDERQDSINAYNEPNSTKFVFMLSTRAGGLGINLATADVVILYDSDWNPQVDLQAMDRAHRIGQTKTVRVFRFITDNTVEERIVERAEMKLRLDSIVIQQGRLVDQNLNKIGKDEMLQMIRHGATHVFASKESEITDEDIDGILERGAKKTAEMNEKLSKMGESSLRNFTMDTESSVYNFEGEDYREKQKIAFTEWIEPPKRERKANYAVDAYFREALRVSEPKAPKAPRPPKQPNVQDFQFFPPRLFELLEKEILFYRKTIGYKVPRNPELPNAAQAQKEEQLKIDEAESLNDEELEEKEKLLTQGFTNWNKRDFNQFIKANEKWGRDDIENIAREVEGKTPEEVIEYSAVFWERCNELQDIEKIMAQIERGEARIQRRISIKKALDTKIGRYKAPFHQLRISYGTNKGKNYTEEEDRFLICMLHKLGFDKENVYDELRQCIRNSPQFRFDWFLKSRTAMELQRRCNTLITLIERENMELEEKEKAEKKKRGPKPSTQKRKMDGAPDGRGRKKKLKL
notes: SNF2h, human ISWI-family chromatin remodeling ATPase, full-length form; Only the ATPase domain is resolved in the 3.4 Å map; source: Escherichia coli BL21(DE3) Rosetta, purified as previously described (Leonard and Narlikar, 2015)
